B1: OR4K15 (parent)
chain: GUUAACGGUCAUAGGCCAUGGAAACUAGGAGCACCAUUUCGCUGCCAGUGAAGAAAUGAACAAAGAAAAUCUGGGCCAGGCAGGCAUCAAAAGAAAUAGUCUUGCGCUCAACCAGAAAGUCUGUAAUCAUUUUAAGGGUA

Among the data in the RNAGym collection of RNA variant scans (doi:10.7554/elife.90254) are self-cleavage values, retold here.

Read counts are not given, so values of variants with three or more changes are uncertain.

Variants of B1 are the subject of the data set. Description: self-cleavage, relative activity (ratio to wild type); higher = more cleavage; in vitro, sequencing; the parent is a self-cleaving ribozyme.
On to A78U A86U A129G, for which the self-cleavage is 0.11.
Under U70C A92G A94G U127C stands 0.24.
In the case of A69U A90G U103A it was 0.69.
For C77U A78G A89G, the self-cleavage was 0.09.
For A78U U87A A129G, the self-cleavage was 0.35.
Consider A86U U87C U127C, for which the self-cleavage is 0.64.
Under A86G A95G U132C stands 1.9; under C85A A114G A126G C128A, 0.19.
As to U70C A91G A116G U122C, the self-cleavage turned out to be 0.96.
In the case of U87C G104A A114U it was 0.01; in that of A82U A94G A134U, 0.43.
In the case of U70C A92G U130C, the self-cleavage was determined as 0.35.
Under A68G A91G A135G stands 1.24.
Under C71A U127C G137A stands 0.4; under U87C G106U U132C, 0.02; under A69G U100C A116U, 0.67.
Regarding A82C A86G U103C C113A A118G, the self-cleavage turned out to be 0.01.
In the case of A69G A96G U124C it was 0.74; in that of U72G A91G U97A, 0.37.
Under U87C A91G U132C stands 0.69; under U87C U130A U139C, 0.35.
With C81A A92G U127C, the self-cleavage was determined as 0.03.
In the case of A68G A114U G138A it was 0.08.
Regarding G74A A114G G123A, the self-cleavage was 0.06.
As for U72C A78G U103C, the self-cleavage was found to be 0.1.
Under A68G A89G A118G stands 0.83; under A78G U103C A110G, 0.01.
In the case of G74A G83U U87C it was 0.08; in that of A82U U97C A98G C105A, 0; in that of G80A A95G A111G U120A, 0.01.
Consider A69G U87C U108C, for which the self-cleavage was determined as 0.05.
A69G U70C C77A: the self-cleavage was determined as 0.11.
Turning to A69G A111G A140C, the self-cleavage was 0.02.
As to U72A A92G U100C U132C, the self-cleavage came out at 0.32.
In the case of A69G A96G U130C it was 1.1; in that of G73U U87A A90G, 0.37.
In the case of U70A A92G A94G U131C it was 0.81; in that of A82G A90G U122A, 0.67.
For G75A A114U A134G, the self-cleavage was 0.
As for U72C U108C A116U, the self-cleavage is 0.01.
With U70C A95G C101A, the self-cleavage is 0.16.
In the case of A82U A92G U102A U122C it was 0.06; in that of A69C A126G U130A, 1.03.
With A82U G104U U108C A111G, the self-cleavage was determined as 0.
As to A78G A82U U108A, the self-cleavage is 0.03.
Under U70C A90G A135G stands 1.85; under A68U A94U U131C, 1.64; under A78U A91G U103C, 0.02.
Under U87C A91G U97C stands 0.76; under U70C A89G A94G, 0.46.
As to U87C A91G U100C U103A, the self-cleavage is 1.03.
Under U72A A116U U132A stands 0.15; under U70C U87C C101U, 0.05.
Under A82G U87C A94C U102C A118C stands 0.32.
Take A82G U87C A117G A125G: the self-cleavage was found to be 0.11.
Under U87A A116G G137A stands 1.13; under U87A U132G A140U, 2.62.
Under U87C C101U A118G stands 0.06; under U70C A118G U131C, 0.08; under A82G U102C A114U A126G, 0.03.
Take A68G A91U A96G U100C: the self-cleavage turned out to be 2.74.
Consider A69G A82G U108C, for which the self-cleavage stood at 0.02.
In the case of U70C U87C A92G it was 1.04; in that of A86G A96G U103C, 1.41.
Under U72A A117G A126G stands 0.25.
Take A68G A111G A129G U132C G137A: the self-cleavage is 0.03.
Under A82U A92U A95G U127A stands 0.29; under C88A A98G U103C U122C, 0.02.
Consider A82U U87A A135U, for which the self-cleavage is 0.12.
A78G C113A U127C: the self-cleavage is 0.
Under A89G A94G U133A stands 1.57; under G74C A96G A126G, 0.18.
In the case of G79C A86G U103C it was 0.03.
Under U87C U103C U132C stands 0.64; under U72A A86U U100C, 0.6; under U70C U132C A135G, 0.56.
With C71A G74U A82G A129G, the self-cleavage turned out to be 0.06.
Under A78G A98G U122A stands 0.02; under G79A A110G A118U, 0.
For the variant A68G U87A U127A, the self-cleavage is 1.78.
Turning to G75A C88A A117G A126G, the self-cleavage came to 0.03.
In the case of A69C U87C A96U U100C U102A A117G it was 2.6; in that of A69G A126G A129G, 0.6; in that of A78G A95U A129G, 0.17.
With U70C U72C G84U, the self-cleavage was 0.41.
Under A82U U122G U130C stands 0.08.
Under U70A A94U U122G stands 2.97; under U72C A96G A129G U132C, 0.16; under A69G A82U U131G, 0.02.
Under A69U U103C U108C U120C stands 0; under G74A G80U A96G U102C A111G, 0.03.
Regarding A68G U97A U102C, the self-cleavage worked out at 1.68.
In the case of A69G A82U A111U it was 0.01; in that of C76U A110G A116G, 0.02; in that of A82G A110G A111G U124C, 0.02.
Under G75U A116G U124C U132C A135G stands 0.
Under A69U A114G A126U stands 0.77; under A69C A118G U131C, 0.49; under A78G G84A A116G, 0.1.
As for A82G U100C U102A A129G, the self-cleavage was 1.14.
For the variant U72C A96G A118G, the self-cleavage amounted to 0.14.
In the case of A69G A114G U130C it was 0.06; in that of U87C A92U U100C, 2.08; in that of A86U U100A U108C G119A, 0.
Turning to A68G U108A U133C, the self-cleavage was 0.03.
As to C76U U100C U120C A126U U127C, the self-cleavage was 0.03.
As for A68G A92U A135U, the self-cleavage was found to be 2.39.
In the case of U87C A92G A94G it was 2.
Turning to A82U A86G A110G U127C, the self-cleavage stood at 0.01.
Consider A82U A91U U122G, for which the self-cleavage stood at 0.36.
For A68G U70C U122C, the self-cleavage was found to be 0.23.
As to A82U U87C A95U A96G, the self-cleavage came out at 0.06.
Under U72C A90G A91G stands 0.16; under A86G A95G U100A A110G U133C, 0.08.
For U72A A82G A89U A117G, the self-cleavage was determined as 0.18.
For U72C A86U G104A U139C, the self-cleavage was 0.01.
In the case of A82U A94G A111G it was 0; in that of A68G A92G A129C U130C, 0.35; in that of G80A A90G U122A, 0.13.
Take G75A A98G U108C: the self-cleavage worked out at 0.01.
Under A82C A90G A98G U108G stands 0; under A82G A110G A116G A135G, 0.22.
On to U87C A91G G138A, for which the self-cleavage stood at 0.85.
On to A78U U87C A89U U120C, for which the self-cleavage turned out to be 0.09.
Take A78G G79U A90G U120C: the self-cleavage turned out to be 0.16.
Under A68G A86G U122C U133C stands 1.64.
With A68G A116G U139C, the self-cleavage is 0.97.
In the case of A82G C121U G123A it was 0.64; in that of G79A A86G A111U A126G, 0.01.
Under A69G A82G A89G stands 0.45; under U70C A114G A116G, 0.42; under A86U U87C A91G A140U, 0.22.
With U87C A89U A92G A110G, the self-cleavage was 0.1.
Take A69U U130C U132C: the self-cleavage was 1.29.
In the case of A69G A110G A117U it was 0.05.
For U87C A116U A118G, the self-cleavage turned out to be 0.03.
Turning to U72C A92G U132A G137A, the self-cleavage is 0.15.
In the case of A82G A92G A95G U122A U131C it was 0.57; in that of A68G A86G A129C A134G, 0.98.
Under U70C A114G A117G stands 0.21; under A78U A86G A116G, 0.04.
With A78U A82U A86U, the self-cleavage turned out to be 0.15.
For U72G A95G A96G, the self-cleavage was 0.2.
On to A82G A91C U100C, for which the self-cleavage was found to be 1.45.
Under U87A A118G U130G stands 0.3; under A86G U87C A129U, 0.36; under A68U A94G A111G A117G A118G U122A, 0.02.
Take A69G A126G U130C: the self-cleavage was 0.51.
Under U72C G80C A94U C112G A117G stands 0.02; under A82G C107U A110G, 0.01.
Under A82G A94G U108A G137A stands 0.05.
Under A86U A89U A96G stands 1.21.
Regarding U70C U87C A114G A118G, the self-cleavage was 0.09.
Under U72C C81U A82G U87C A96G stands 0.06; under A78U A86U A110G, 0.18; under A86G A89C U124C, 0.56.
As for G80A A111G U131C, the self-cleavage is 0.
As for U70C A95G A126G, the self-cleavage was 0.97.
On to C85U A94G U103C, for which the self-cleavage worked out at 0.23.
Under A69G U100C A110G stands 0.27.
For the variant A69G A91G U103C U139C, the self-cleavage is 0.12.
Under G84C A95G U120C U122C stands 0.34.
Under G79A A82G U120C stands 0.18; under A82G A89U U120A, 0.19; under A78U A125G U132C, 0.03.
For the variant G74U U100C U108A, the self-cleavage amounted to 0.04.
For the variant A86C A96C A110G, the self-cleavage worked out at 0.03.
